Reference: PubChem BioAssay AID504332 (National Center for Advancing Translational Sciences (NCATS), 2011)
About 31,000 (8.9%) of roughly 350,000 compounds were called active. This list was built around the results that the source calls inconclusive (neither active nor inactive); the mix of calls is not that of the screen. The call rests on the fitted dose curve; in most records, active means well fitted inhibition curve with a large enough effect; inconclusive means small, poorly fitted or top-dose-only effect; inactive means no such curve, though single readings can be large or run the other way. Potencies beside an inconclusive call are fits to weak or partial responses and may not hold up.

biological target: Histone-lysine N-methyltransferase EHMT2 (Homo sapiens) (UniProt Q96KQ7); experiment: qHTS Assay for Inhibitors of Histone Lysine Methyltransferase G9a; settings: G9a H3K9 monomethylation, AlphaScreen, 2 h; activity, negative = inhibition: at 59 µM (top of the series) unless noted; further: nearly all actives have a fitted effect of over 75% in size
Method in brief: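 Quantitative HTS format: methyltransferase activity on a biotin-tagged H3K9 peptide is measured by AlphaScreen, using a rabbit anti-monomethyl-H3K9 antibody with streptavidin donor and anti-IgG acceptor beads. Final levels are 20 nM enzyme, 500 nM peptide, 20 uM SAM; 2 h RT.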
On the % scale 0 is the no-effect control and ±100 the full control effect; potency means the concentration at half of the fitted maximal effect; tags describe the fitted curve by direction and shape.

Sequence of UniProt Q96KQ7 (Q96KQ7 whole entry, looked up): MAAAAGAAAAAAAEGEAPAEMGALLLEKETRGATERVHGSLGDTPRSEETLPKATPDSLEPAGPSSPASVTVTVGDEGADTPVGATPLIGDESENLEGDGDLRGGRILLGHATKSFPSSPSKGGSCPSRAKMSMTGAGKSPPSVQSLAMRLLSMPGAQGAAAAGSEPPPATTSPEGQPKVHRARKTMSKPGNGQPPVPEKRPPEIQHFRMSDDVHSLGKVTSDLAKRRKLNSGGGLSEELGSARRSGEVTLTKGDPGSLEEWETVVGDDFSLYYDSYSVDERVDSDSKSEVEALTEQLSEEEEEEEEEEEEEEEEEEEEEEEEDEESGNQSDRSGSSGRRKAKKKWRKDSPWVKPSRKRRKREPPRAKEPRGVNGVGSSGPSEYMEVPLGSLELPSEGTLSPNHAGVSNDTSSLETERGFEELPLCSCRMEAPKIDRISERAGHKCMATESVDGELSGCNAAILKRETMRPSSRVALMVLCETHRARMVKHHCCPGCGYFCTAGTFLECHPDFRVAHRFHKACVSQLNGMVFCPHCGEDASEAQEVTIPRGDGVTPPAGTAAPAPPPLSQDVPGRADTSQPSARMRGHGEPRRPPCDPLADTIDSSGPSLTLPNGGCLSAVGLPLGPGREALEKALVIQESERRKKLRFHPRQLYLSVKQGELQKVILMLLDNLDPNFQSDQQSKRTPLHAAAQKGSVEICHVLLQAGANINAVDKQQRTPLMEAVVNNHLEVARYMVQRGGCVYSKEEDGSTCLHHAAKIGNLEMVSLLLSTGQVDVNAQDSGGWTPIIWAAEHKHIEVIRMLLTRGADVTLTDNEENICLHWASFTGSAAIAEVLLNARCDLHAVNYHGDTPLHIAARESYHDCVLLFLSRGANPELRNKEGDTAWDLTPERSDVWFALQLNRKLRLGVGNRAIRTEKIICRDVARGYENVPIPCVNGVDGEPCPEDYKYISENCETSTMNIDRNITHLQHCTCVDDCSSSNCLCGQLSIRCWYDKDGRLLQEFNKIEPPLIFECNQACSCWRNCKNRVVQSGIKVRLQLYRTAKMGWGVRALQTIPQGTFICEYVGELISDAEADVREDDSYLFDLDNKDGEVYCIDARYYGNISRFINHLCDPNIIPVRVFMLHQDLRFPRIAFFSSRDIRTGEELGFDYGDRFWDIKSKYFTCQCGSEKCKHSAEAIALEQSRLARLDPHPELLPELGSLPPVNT

Compound	Potency	activity, negative = inhibition
O=C(NC(Cc1c[nH]c2ccccc12)C(=O)O)c1ccccc1 (stereo not given)	inconclusive: 35.5 µM [inhibitor, full curve]	–
Cc1cc(NC(=O)CSc2nc3[nH]c(=O)cc(O)c3s2)ccc1Br	inconclusive: 50.1 µM [inhibitor, partial curve, poor fit]	–
O=C(CN1C(=O)C2CC=CCC2C1=O)Nc1nc2ccccc2s1 (stereo not given)	inactive	–
CSc1ncccc1C(=O)Nc1cc(C)ccn1	inconclusive: 89.1 µM [inhibitor, single point]	–
CC(C)CN1C(=O)NC(NC(=O)c2cccs2)(C(F)(F)F)C1=O (stereo not given)	inactive	–
COc1cc2[nH]c(=S)n(Cc3ccco3)c(=O)c2cc1OC	active: 3.55 µM	–
O=C(c1ccco1)N1CCN(C(=O)C2CCCc3c2[nH]c2ccc(Cl)cc32)CC1 (stereo not given)	–	inconclusive: -53.2% [inhibitor]
Nc1ccc2nc(-c3ccc(Cl)cc3)[nH]c2c1	inconclusive: 89.1 µM [inhibitor, single point]	–
COc1ccc(NC(=O)N2CCCc3cc(C)ccc32)c(OC)c1	inconclusive: 79.4 µM [inhibitor, partial curve, poor fit]	–
O=C(O)c1cc(O)c2c(c1)[O][Bi][O]2	active: 1 µM	–
Cc1cccc2c(C(=O)n3cccn3)cc(-c3ccccc3Cl)nc12	inconclusive: 39.8 µM [inhibitor, single point]	–
O=C1CCN(C(=O)Nc2cccc(Cl)c2)N1	active: 10 µM	–
COc1ccc(-n2cnnc2SCC(=O)N2CCN(c3ccccc3)CC2)cc1	inconclusive: 22.4 µM [inhibitor, single point]	–
O=C(C[n+]1ccccc1)N/N=C/c1ccc(C(=O)O)cc1	inconclusive: 15.8 µM [inhibitor, partial curve, poor fit]	–
COc1ccc(CCN(C)C(=O)CSc2nnc(C3CC3)n2N)cc1OC	active: 39.8 µM	–
CN1CCC(N(C)CC(=O)Nc2cccc(Oc3ccccc3)c2)CC1	inconclusive: 2.24 µM [inhibitor, partial curve, poor fit]	–
COc1ccccc1N1CCN(S(=O)(=O)c2c(C)ccc3nsnc23)CC1	inconclusive: 8.91 µM [inhibitor, partial curve, poor fit]	–
O=C(/C=C/c1ccc(Br)cc1)NC(=S)NNC(=O)c1ccco1	inconclusive: 35.5 µM [inhibitor, single point]	–
CC(C)n1cc(CN2CCCC(C(=O)Nc3cccc(-c4cc5ccccc5[nH]4)c3)C2)cn1 (stereo not given)	inconclusive: 79.4 µM [inhibitor, partial curve, poor fit]	–
COc1ccccc1NCC(O)Cn1c2ccccc2c2ccccc21 (stereo not given)	–	inconclusive: -107% [inhibitor]
COc1ccc(C(=O)NNC2=NS(=O)(=O)c3ccccc32)cc1OC	inactive	–
CCOc1cc(CNCCN2CCOCC2)ccc1OCc1ccccc1Cl	active: 50.1 µM	–
Cc1ccc(C2C(C(=O)c3sc(C)nc3C)=C(O)C(=O)N2CCCN(C)C)o1 (stereo not given)	inconclusive: 1.12 µM [inhibitor, partial curve, poor fit]	–

Compound	Potency	activity, negative = inhibition
COc1ccc(CN(C(=O)c2ccc(OCC(C)C)cc2)C2CCS(=O)(=O)C2)cc1 (stereo not given)	inactive	–
N#C/C(=C(/O)c1ccc2c(c1)OCO2)c1nc2cc(C(F)(F)F)ccc2s1	inconclusive: 44.7 µM [inhibitor, partial curve, poor fit]	–
CC(C)[C@H](NS(=O)(=O)c1ccccc1)C(=O)OCC(=O)NC(=O)c1cccn1C	inconclusive: 89.1 µM [inhibitor, single point]	–
CC1=C(C#N)c2nc(N)c(C#N)c(C)c2/C1=C\c1ccc(-c2ccccc2C(=O)O)o1	active: 7.94 µM	–
COc1cccc(C2C=C(c3ccc(C)cc3)Nc3c(C(=O)Nc4ccc(F)cc4)cnn32)c1OC (stereo not given)	inconclusive: 3.55 µM [inhibitor, partial curve, poor fit]	–
S=C(Nc1ccc(Br)cc1Cl)NC1CCN(Cc2ccccc2)CC1	inactive	–
CCOc1ccc(NC(=O)CSc2nncc(=O)[nH]2)cc1	inconclusive: 89.1 µM [inhibitor, single point]	–
CCOC(=O)/C(C(C)=O)=C1\OC(=O)c2ccccc21	inactive	–
CCN1CCN(C(c2cccc(OC)c2)c2c(O)cc(C)n(Cc3ccco3)c2=O)CC1 (stereo not given)	inconclusive: 39.8 µM [inhibitor, single point]	–
COc1ccc(Cl)cc1C(=O)NCC(c1ccco1)N1CCCC1 (stereo not given)	inconclusive: 22.4 µM [inhibitor, partial curve, poor fit]	–
CCOC(=O)Cn1c(=O)n(Cc2ccc(OC)cc2)c(=O)c2cccnc21	inactive	–
CCNC(=O)N1CCCC(C(=O)c2ccc(C(F)(F)F)cc2)C1 (stereo not given)	inactive	–
O=C(Nc1ccc(C(F)(F)F)cc1)C1CCN(S(=O)(=O)c2ccc(N3CCCC3=O)cc2)CC1	inactive	–
Cc1c(Nc2nc3ccccc3nc2N2CCN(c3ccccc3)CC2)c(=O)n(-c2ccccc2)n1C	inconclusive: 2.82 µM [inhibitor, partial curve, poor fit]	–
COc1ccc(N2CCN(C(=O)Nc3ccc(Cl)cc3)CC2)cc1	inconclusive: 11.2 µM [inhibitor, partial curve]	–
C=CCSc1ncccc1C(=O)NCc1ccccc1	inconclusive: 44.7 µM [inhibitor, partial curve, poor fit]	–
O=C(Nn1cnnc1)c1cc2c(s1)CCCCC2	inconclusive: 1.78 µM [inhibitor, partial curve, poor fit]	–
COC(=O)c1ccc(C(=O)Nc2ccc3c(c2)C(=O)NC3=O)cc1	inconclusive: 50.1 µM [inhibitor, single point]	–
CCCOC(=O)Nc1nc(-c2ccc(C)cc2)c(C)s1	active: 50.1 µM	–
CC(=O)Nc1c(OC(C)=O)ccc2c(C)cc(=O)oc12	inconclusive: 89.1 µM [inhibitor, single point]	–
CCc1cccc(-n2nnc(-c3nc(-c4ccc5c(c4)OCO5)no3)c2C)c1	inactive	–
O=S1(=O)C=C(Sc2nc3cc(Cl)ccc3o2)c2ccccc21	active: 44.7 µM	–
